# According to ChEMBL document CHEMBL4888484, “Replenishing the malaria drug discovery pipeline: Screening and hit evaluation of the MMV Hit Generation Library 1 (HGL1) against asexual blood stage Plasmodium falciparum ,using a nano luciferase reporter read-out” (2022):
# Hit rate of the full screen: of about 150,000 compounds, about 540 (0.36%) showed an effect of 50% or more. The list shows a part of the results.
# Tested on: Plasmodium falciparum
# Test: Primary screen in NF54 nanoGlo assay, in single point, at 2uM, 72h; a lower Z score goes with more inhibition
# Format: functional, Erythrocyte
# Details: timepoint 72 hour
Structure (SMILES),% Inhibition,Z score
COc1ccc(OC)c(-c2cc(C(=O)NCC[C@H](O)c3cccn3C)n(C)n2)c1,5%,-0.56
O=C(CCc1ccsc1)Nc1ccc2c(c1)OC1(CCCCC1)O2,-8%,0.9
N#Cc1ccc(-n2cccc2-c2c(C#N)c(N)nc3c2CNCC3)cc1,-16%,1.63
Nc1nc(NCc2ccc(O)cc2)cc(C2CC(O)C2)n1 (stereo not given),2%,-0.38
Cc1cn2cc(C(=O)N3CC=C(c4ccnn4C)CC3)sc2n1,-2%,0.27
COc1c(C)cc(C(=O)N2CCC3(CC2)NCCNC3=O)cc1C,-11%,1.63
O=C1N(CN2CCN(c3ccccc3F)CC2)c2ccccc2C12OCCCCO2,-4%,0.56
Cc1c(CN[C@H]2CCCc3c2cnn3-c2ccccn2)[nH]c2c(Cl)cccc12,15%,-1.94
CCc1nc(CN2C(=O)COc3cc(S(=O)(=O)Nc4ccc(C#N)cc4)c(C)cc32)no1,0%,-0.03
CCc1ncc(-c2cc(C(=O)N3CCC(C)(C)C3)c3cc(C)ccc3n2)cn1,10%,-1.32
CC(C)n1cc(NC(=O)N2CCN(CC(F)(F)F)C[C@H](C)C2)cn1,-1%,0.13
Cc1cc(NC(=O)NCC[C@H]2CCCO2)n(-c2ccc(C(F)(F)F)cn2)n1,4%,-0.8
C=CCN(Cc1cnc2c(-c3ccccc3)cnn2c1)[C@H]1CCS(=O)(=O)C1,-9%,1.31
C[N+]12CCCCC1C(OC(=O)C1(c3ccccc3)CCCC1)CCC2 (stereo not given),63%,-6.6
CN1C[C@@H](NC(=O)NCc2ccc(OC(F)F)cc2F)CC1=O,1%,-0.09
O=C(O)c1cccc(CN2CC[C@H](c3ccccc3)[C@H](CO)C2)c1,16%,-1.98
C[C@@]1(C(=O)NC2CCCCCC2)Cn2nc(-c3ccco3)cc2C(=O)N1Cc1cccc(Cl)c1,-6%,1.07
CO[C@H]1CS(=O)(=O)C[C@@H]1NC1Cc2ccccc2C1,-8%,1.48
CN(CCn1ccc2ccccc21)Cc1cnc(N)nc1,-12%,2.09
Cn1ncc2c(N)nc(N3CCC(c4c[nH]c5ccccc45)CC3)nc21,-7%,0.73
Cn1cc2ncn(Cc3ccccn3)c(=O)c2n1,6%,-1.19
c1ccc(OCCN2CCN(c3ncccn3)CC2)cc1,-3%,0.27

Structure (SMILES),% Inhibition,Z score
Cc1cnc(C(=O)NC[C@H]2CCC3(CCOCC3)CO2)c(C)c1,4%,-0.54
CC(C(=O)Nc1ccc(N2CCCCC2)cc1)N1CCCC(C(N)=O)C1 (stereo not given),7%,-0.82
COc1ccc(S(=O)(=O)N2CCC(O)(CN3CCCC3)CC2)cc1Cl,1%,-0.24
O=C(CN1CCOCC1=O)NCC1(C2CC2)CCC1,-13%,1.68
Cc1ccccc1C1CC(C)N(C(=O)c2ccc(CN)o2)C1 (stereo not given),2%,-0.26
CC(=O)Nc1cccc(COc2nc(Cc3ccc(F)cc3)no2)c1,-4%,0.5
COc1cc(C)ccc1OCc1nc(C(=O)NCc2nc(C)c(C)s2)co1,-12%,1.54
O=C(c1scc2c1CCCC2)N1CCC(C(=O)O)(n2cccn2)CC1,-10%,1.04
COc1ccc(N2CCN(C(=O)c3csc(CN(CCc4ccc(OC)c(OC)c4)Cc4ccc(C)cc4)n3)CC2)cc1,-8%,0.77
c1ccc2c(-n3cnnc3CN3CCOCC3)cccc2c1,-3%,0.68
CCOC(=O)N1CC[C@@H](c2ccccc2F)S(=O)(=O)CC1,-12%,2.01
Cn1cc(-c2cc(-c3cnn(C)c3)n(-c3ccc(Cl)c(Cl)c3)n2)cn1,25%,-2.81
Cc1n[nH]c2c1CN(Cc1[nH]cc(C)c(=O)c1C)CC2,-8%,1
c1cc2c(cc1CN(Cc1nnc(C3CC3)o1)C1CCCC1)CCO2,-17%,2.6
O=C(CC(F)(F)F)Nc1ccc(-n2cc[nH]c2=O)cc1,8%,-1.06
COC1(CNc2nc(N)c3[nH]cnc3n2)CCOCC1,0%,0.02
O=C(NC1CCC(O)CC1)c1csc2c1CCCC2 (stereo not given),-7%,1
Cc1ccc(Cn2cc([C@H](CC(=O)NCCN3CCOCC3)c3cccc(C(F)(F)F)c3)c3ccccc32)cc1,-9%,1.15
Cn1cc(CNc2ccc3c(c2)nnn3C)c(C(C)(C)C)n1,-5%,0.81
CC(C)Cn1c([C@H]2CCN(C(=O)Cc3ccsc3)C2)nc2ccncc21,0%,0.02
NC[C@H]1Cc2cc(F)cc(-c3cc(C(F)(F)F)cc4[nH]cnc34)c2O1,14%,-1.38
N#CC1=NN(c2ccc(Cl)cc2Cl)[C@H]2CCCCCN2C1=O,-8%,1.17

Structure (SMILES),% Inhibition,Z score
COC(=O)CC[C@H](C)NCc1cccc(CO)c1,-16%,1.69
CCn1nc(C)cc1-c1nc2ccccn2n1,-6%,1.15
CCC(N)(CC)CNC(=O)Nc1cc(-c2ccoc2C)on1,-2%,0.4
CCOC(=O)c1noc2ncnc(N3CC[C@H](c4ccccc4)C3)c12,-3%,0.57
Cc1cccc(C)c1NC(=O)NCc1cc2n(n1)CCN(C1CCCCC1)C2,2%,-0.22
O=S(=O)(N[C@H]1CCOC[C@@H]1O)c1cccc2cccc(Cl)c12,1%,-0.16
CC(C)CCNC(=O)CCCOc1ccccc1,-17%,2.48
FC(F)Cn1ccc(NCc2[nH]ncc2Br)n1,-13%,1.76
CN=C(NCCC1=CCOCC1)NC1CC(C)N(c2ccccc2)C1 (stereo not given),0%,0.03
Fc1cccc2nc(N3CCC[C@H]3c3ncccn3)oc12,-12%,1.94
CCN(CC)C[C@H](O)COc1ccc(Cl)cc1Cl,9%,-1.14
COCCN(Cc1c(C)nn(C)c1Cl)CC1CCN(Cc2ccccc2F)CC1,-10%,1.32
CC(C)[C@@]1(C(=O)Nc2ncccc2O)CNC(=O)C1,6%,-1.2
Cc1ccc(-n2cccn2)c(-c2c(C#N)c(N)nc3c2CC(N)CC3)c1 (stereo not given),-3%,0.42
CNC(=O)c1ccc(N(C)[C@H](CO)CC(C)C)nn1,-42%,4.89
C=CCCCC(NCCc1c(C)noc1C)C1(C)CCCO1 (stereo not given),-5%,0.73
CC(C)(CN[C@H]1CCCS(=O)(=O)C1)c1ccccc1Cl,7%,-0.75
CCN1CCN(C(=O)c2nn(-c3cc(C)ccc3F)c3c2CCC3)[C@@H](C)C1,-13%,2.17
CCCCn1ccnc1-c1cccc(NC(=O)Cc2cc(C)[nH]n2)c1,0%,0
CCCC1(C2CCN(C(=O)c3ccoc3)CC2)NC(=O)N(CCC2CCCN2C)C1=O (stereo not given),-4%,0.8
Cc1noc2nc(CCC(=O)NCc3ccc(F)cc3)nc(N3CC(C)CC(C)C3)c12 (stereo not given),17%,-2.6
Cn1c(=O)[nH]c2ncc(-c3cccc(C(=O)NC4CCOCC4)c3)cc21,-7%,1.4

Structure (SMILES),% Inhibition,Z score
Cc1cc(C)n(CCC(=O)N2CCCCc3cccnc32)n1,-20%,3.43
CN(C)c1cnc(C(=O)NC(C)(C)C(C)(F)F)cn1,0%,0.08
COc1cc(C(=O)CN(C)C(C)=O)cc2c1OCO2,-49%,5.72
CNc1nc(C)c(C(=O)N2CCC3(CC2)c2ccccc2C[C@@H]3O)s1,-2%,0.44
COC1CCCN(C(=O)CC2(c3ccccc3)CC(=O)N(CCc3ccccn3)C2=O)C1 (stereo not given),-2%,0.3
COc1ccc(NS(=O)(=O)c2ccc3onc(C(=O)N4CCCC4)c3c2)cc1,-6%,0.99
C[C@H](NC(=O)NCCOc1ccc(F)c(F)c1)c1ccncc1,-9%,1.9
COc1ccc(-n2c(-c3cnccn3)n[nH]c2=O)c(C)c1,-14%,1.77
Cc1cc(C(=O)CN2C(=O)NC(C)(c3ccccc3Cl)C2=O)c(C)n1CC1CCCO1 (stereo not given),-6%,0.98
Cc1nc(CN(Cc2cccnc2)Cc2ccco2)cs1,2%,-0.28
COc1ccc(-c2cnn3c2N(C)CC3)c(F)c1,-1%,0.2
O=C(NC1CCCCC1OC1CCCC1)c1csnn1 (stereo not given),-7%,1.01
COc1ccnc(N2C[C@@H]3OCC(=O)N(CC4CC4)[C@@H]3C2)n1,-6%,0.87
Cc1ccc(C(=O)N2CC(C)NC(C)C2)n1C (stereo not given),-20%,2.36
O=C(OCC1CCOCC1)c1cnn2ncccc12,14%,-1.78
Cc1cccc(NC(=O)COc2ccc3c(c2)OCO3)n1,-3%,0.51
CCOc1ccc(NC(=O)c2ccccc2N2C(=O)[C@@H]3Cc4c([nH]c5ccccc45)C(c4cccc(OC)c4)N3C2=O)cc1 (stereo not given in full),-1%,0.05
CCOc1ccc(C(=O)NCC2(CO)CC2)o1,-2%,0.2
CCCCN1C(=O)c2ccccc2C(C(=O)NCCC2CCCN2C)C1c1cccc(Cl)c1 (stereo not given),-24%,2.08
